A collection of fitness landscapes (doi:10.1126/science.1257360)
This is one part of the list.

B1: PhoQ; a variant is named by its letters at X, in order, P23837 (parent)
chain: MKKLLRLFFPLSLRVRFLLATAAVVLVLSLAYGMVALIGYSVSFDKTTFRLLRGESNLFYTLAKWENNKLHVELPENIDKQSPTMTLIYDENGQLLWAQRDVPWLMKMIQPDWLKSNGFHEIEADVNDTSLLLSGDHSIQQQLQEVREDDDDAEMTHSVAVNVYPATSRMPKLTIVVVDTIPVELKSSYMVWSWFIYVLSANLLLVIPLLWVAAWWSLRPIEALAKEVRELEEHNRELLNPATTRELTSLVRNLNRLLKSERERYDKYRTTLTDLTHSLKTPLXXLQXXLRSLRSEKMSVSDAEPVMLEQISRISQQIGYYLHRASMRGGTLLSRELHPVAPLLDNLTSALNKVYQRKGVNISLDISPEISFVGEQNDFVEVMGNVLDNACKYCLEFVEISARQTDEHLYIVVEDDGPGIPLSKREVIFDRGQRVDTLRPGQGVGLAVAREITEQYEGKIVAGESMLGGARMEVIFGRQHSAPKDE

Variants of: B1
Experiment: enrichment ratio after two sorts for PhoP signalling (ratio (wild type AVST 3.29)); higher = more functional
Settings: with PhoP (E. coli)

| Variant | enrichment ratio |
| --- | --- |
| GKSA | ≤ 0.25 |
| LVCT | ≤ 0.25 |
| GPLD | ≤ 0.25 |
| GDNS | ≤ 0.25 |
| WRTG | ≤ 0.25 |
| WSNI | ≤ 0.25 |
| RNWT | ≤ 0.25 |
| YEIP | ≤ 0.25 |
| EPQI | ≤ 0.25 |
| HQLF | 0.627 |
| IMFY | ≤ 0.25 |
| FFCK | ≤ 0.25 |
| ADVF | ≤ 0.25 |
| DMHT | ≤ 0.25 |
| FKMM | ≤ 0.25 |
| IDGG | ≤ 0.25 |
| WALM | 6.02 |
| NFMA | ≤ 0.25 |
| HVLD | ≤ 0.25 |
| NGLR | ≤ 0.25 |
| RTRL | ≤ 0.25 |
| WITW | ≤ 0.25 |
| ECGY | ≤ 0.25 |
| YFPN | ≤ 0.25 |

| Variant | enrichment ratio |
| --- | --- |
| QCCS | ≤ 0.25 |
| EIPN | ≤ 0.25 |
| ITWH | ≤ 0.25 |
| PPCV | ≤ 0.25 |
| DCEC | ≤ 0.25 |
| TAMF | 19.6 |
| TPSN | ≤ 0.25 |
| SLAN | 13.8 |
| GHHV | ≤ 0.25 |
| LKLT | ≤ 0.25 |
| SCDN | ≤ 0.25 |
| SVSC | 10.1 |
| DTVI | ≤ 0.25 |
| NTSM | ≤ 0.25 |
| HRRY | ≤ 0.25 |
| LSDA | ≤ 0.25 |
| TNIK | ≤ 0.25 |
| DGNS | ≤ 0.25 |
| FHSK | ≤ 0.25 |
| TAPC | ≤ 0.25 |
| FHGF | 1.06 |
| HGAC | ≤ 0.25 |
| IWNY | ≤ 0.25 |
| NSAM | ≤ 0.25 |

| Variant | enrichment ratio |
| --- | --- |
| RQKA | ≤ 0.25 |
| QSMH | ≤ 0.25 |
| NSPM | ≤ 0.25 |
| HHYD | ≤ 0.25 |
| HLTR | ≤ 0.25 |
| DRYC | ≤ 0.25 |
| RSCC | ≤ 0.25 |
| NNHK | ≤ 0.25 |
| DDYM | ≤ 0.25 |
| SMSM | 12.4 |
| YQAP | ≤ 0.25 |
| QLPH | ≤ 0.25 |
| IQVT | ≤ 0.25 |
| NCAT | ≤ 0.25 |
| SLSG | 11.8 |
| DQGF | ≤ 0.25 |
| RRRR | ≤ 0.25 |
| MPFV | ≤ 0.25 |
| MDRY | ≤ 0.25 |
| KQSY | ≤ 0.25 |
| EYNL | ≤ 0.25 |
| AYNK | ≤ 0.25 |
| RFIL | 1.24 |
| HQTH | ≤ 0.25 |

| Variant | enrichment ratio |
| --- | --- |
| SYFY | ≤ 0.25 |
| RNAE | ≤ 0.25 |
| IQAK | ≤ 0.25 |
| TICT | 7.58 |
| RGVL | ≤ 0.25 |
| NKKC | ≤ 0.25 |
| SFSR | ≤ 0.25 |
| WASM | ≤ 0.25 |
| YTSN | ≤ 0.25 |
| ITFP | ≤ 0.25 |
| YQIG | ≤ 0.25 |
| KEEG | ≤ 0.25 |
| RRSV | ≤ 0.25 |
| HKCT | ≤ 0.25 |
| ANWY | ≤ 0.25 |
| PALE | ≤ 0.25 |
| MVRC | ≤ 0.25 |
| RRRN | ≤ 0.25 |
| AATW | ≤ 0.25 |
| AEKV | ≤ 0.25 |
| EALS | ≤ 0.25 |
| SSIS | 11.9 |
| LKHN | ≤ 0.25 |
| PNPP | ≤ 0.25 |

| Variant | enrichment ratio |
| --- | --- |
| HPSD | 0.266 |
| GNRQ | ≤ 0.25 |
| FVGP | ≤ 0.25 |
| NMLL | ≤ 0.25 |
| FWGN | ≤ 0.25 |
| KQVR | ≤ 0.25 |
| ELRQ | ≤ 0.25 |
| NPHD | ≤ 0.25 |
| RIRK | ≤ 0.25 |
| KDFN | ≤ 0.25 |
| LRCE | ≤ 0.25 |
| NWGN | ≤ 0.25 |
| FVER | ≤ 0.25 |
| VIAY | ≤ 0.25 |
| PGHV | ≤ 0.25 |
| KCGV | ≤ 0.25 |
| NLFY | ≤ 0.25 |
| NDCP | ≤ 0.25 |
| QILD | ≤ 0.25 |
| TGQR | ≤ 0.25 |
| PERF | ≤ 0.25 |
| YPMQ | ≤ 0.25 |
| KMLR | ≤ 0.25 |
| LFHI | ≤ 0.25 |

| Variant | enrichment ratio |
| --- | --- |
| EQSR | ≤ 0.25 |
| LEAC | ≤ 0.25 |
| GIVY | ≤ 0.25 |
| CQSG | ≤ 0.25 |
| HPAA | ≤ 0.25 |
| KREG | ≤ 0.25 |
| YHMI | ≤ 0.25 |
| LQPH | ≤ 0.25 |
| PCIQ | ≤ 0.25 |
| ATFH | ≤ 0.25 |
| RWLP | ≤ 0.25 |
| LMLL | ≤ 0.25 |
| DWWG | ≤ 0.25 |
| AMGM | 0.276 |
| GIFN | ≤ 0.25 |
| WSQY | ≤ 0.25 |
| VYEY | ≤ 0.25 |
| ENAC | ≤ 0.25 |
| GLNC | ≤ 0.25 |
| LCTD | ≤ 0.25 |
| QYYG | ≤ 0.25 |
| DTTD | ≤ 0.25 |
| IIYD | ≤ 0.25 |
| FIHF | ≤ 0.25 |

| Variant | enrichment ratio |
| --- | --- |
| TLTG | 4.13 |
| VILA | ≤ 0.25 |
| SVAL | 10.4 |
| YTFW | ≤ 0.25 |
| SCNC | ≤ 0.25 |
| RHFC | ≤ 0.25 |
| TFIY | ≤ 0.25 |
| FGIN | ≤ 0.25 |
| EYRR | ≤ 0.25 |
| LYIN | ≤ 0.25 |
| TWID | ≤ 0.25 |
| DEHS | ≤ 0.25 |
| THGA | ≤ 0.25 |
| DFCD | ≤ 0.25 |
| LINY | ≤ 0.25 |
| TTMV | 28.9 |
| NKPY | ≤ 0.25 |
| QEID | ≤ 0.25 |
| VGEG | ≤ 0.25 |
| IAIE | ≤ 0.25 |
| SFNA | ≤ 0.25 |
| VRNI | ≤ 0.25 |
| PIEV | ≤ 0.25 |
| VATQ | ≤ 0.25 |

| Variant | enrichment ratio |
| --- | --- |
| FVQN | ≤ 0.25 |
| INPW | ≤ 0.25 |
| YAKI | ≤ 0.25 |
| FYAA | ≤ 0.25 |
| HICP | ≤ 0.25 |
| YYIW | ≤ 0.25 |
| TVFA | ≤ 0.25 |
| HAAP | ≤ 0.25 |
| NLQV | ≤ 0.25 |
| SCWQ | ≤ 0.25 |
| SPHH | ≤ 0.25 |
| WPNF | ≤ 0.25 |
| QEGM | 10.1 |
| CWTL | ≤ 0.25 |
| MPHI | ≤ 0.25 |
| TGVK | ≤ 0.25 |
| PSWV | ≤ 0.25 |
| KQMN | ≤ 0.25 |
| IYRY | ≤ 0.25 |
| TNVG | ≤ 0.25 |
| SNRQ | ≤ 0.25 |
| MNLG | 3.31 |
| IELG | 7.08 |
| GHRQ | ≤ 0.25 |

| Variant | enrichment ratio |
| --- | --- |
| KYIV | ≤ 0.25 |
| CASP | ≤ 0.25 |
| PKYM | ≤ 0.25 |
| CLFY | ≤ 0.25 |
| HFQP | ≤ 0.25 |
| SSSV | 10.9 |
| RLED | ≤ 0.25 |
| TQAN | 7.3 |
| PCFD | ≤ 0.25 |
| EDSL | ≤ 0.25 |
| DLVK | ≤ 0.25 |
| HLGK | ≤ 0.25 |
| RGNH | ≤ 0.25 |
| VYMG | ≤ 0.25 |
| PNAC | ≤ 0.25 |
| PFVE | ≤ 0.25 |
| VVNP | ≤ 0.25 |
| LSYF | 0.698 |
| PHGP | ≤ 0.25 |
| TEAD | 16.8 |
| VHSE | ≤ 0.25 |
| HMCI | ≤ 0.25 |
| LTSR | ≤ 0.25 |
| WIYN | ≤ 0.25 |

| Variant | enrichment ratio |
| --- | --- |
| LKVM | ≤ 0.25 |
| HKHI | ≤ 0.25 |
| FCVP | ≤ 0.25 |
| LNVA | ≤ 0.25 |
| LHLY | ≤ 0.25 |
| WKYM | ≤ 0.25 |
| NWCN | ≤ 0.25 |
| MKQC | ≤ 0.25 |
| HQNH | ≤ 0.25 |
| LHSV | ≤ 0.25 |
| KASE | ≤ 0.25 |
| IMSV | ≤ 0.25 |
| SNDM | ≤ 0.25 |
| MNNY | 15.3 |
| APPG | ≤ 0.25 |
| LLYM | ≤ 0.25 |
| ALPI | ≤ 0.25 |
| VFDY | ≤ 0.25 |
| VNEM | ≤ 0.25 |
| PMFS | ≤ 0.25 |
| NTLP | ≤ 0.25 |
| WWPP | ≤ 0.25 |
| EDAD | ≤ 0.25 |
| NHSR | ≤ 0.25 |

| Variant | enrichment ratio |
| --- | --- |
| LPLL | ≤ 0.25 |
| DWWF | ≤ 0.25 |
| PPRA | ≤ 0.25 |
| HPPT | ≤ 0.25 |
| RNDP | ≤ 0.25 |
| PGDN | ≤ 0.25 |
| LYEQ | ≤ 0.25 |
| TNNL | 0.757 |
| GLMC | ≤ 0.25 |
| KMNA | ≤ 0.25 |
| HAKN | ≤ 0.25 |
| IAMS | ≤ 0.25 |
| ILIK | ≤ 0.25 |
| HTLG | ≤ 0.25 |
| LLFD | ≤ 0.25 |
| KTFG | ≤ 0.25 |
| TPWM | ≤ 0.25 |
| PDMN | ≤ 0.25 |
| NNIY | ≤ 0.25 |
| GDED | ≤ 0.25 |
| TRQN | ≤ 0.25 |
| SDLV | 7.36 |
| IYLC | ≤ 0.25 |
| VPEF | ≤ 0.25 |

| Variant | enrichment ratio |
| --- | --- |
| DFFD | ≤ 0.25 |
| IRVQ | ≤ 0.25 |
| HQMK | ≤ 0.25 |
| AWPS | ≤ 0.25 |
| PKQY | ≤ 0.25 |
| GPDF | ≤ 0.25 |
| PEER | ≤ 0.25 |
| MVRA | ≤ 0.25 |
| LMMS | ≤ 0.25 |
| HCRE | ≤ 0.25 |
| GDWG | ≤ 0.25 |
| HFRI | ≤ 0.25 |
| DTYL | ≤ 0.25 |
| EFKR | ≤ 0.25 |
| KDGK | ≤ 0.25 |
| TDTI | 14.6 |
| AKAC | 19.7 |
| SGMY | 11.1 |
| YWIT | ≤ 0.25 |
| YPSY | ≤ 0.25 |
| MRKE | ≤ 0.25 |
| VWHY | ≤ 0.25 |
| GMTT | ≤ 0.25 |
| DKVL | ≤ 0.25 |

| Variant | enrichment ratio |
| --- | --- |
| PWIF | ≤ 0.25 |
| EHIP | ≤ 0.25 |
| FITI | ≤ 0.25 |
| SPYT | ≤ 0.25 |
| QTFI | ≤ 0.25 |
| EEPA | ≤ 0.25 |
| ADLW | ≤ 0.25 |
| LQGS | ≤ 0.25 |
| DRQQ | ≤ 0.25 |
| QGTG | ≤ 0.25 |
| GIYK | ≤ 0.25 |
| LCQM | ≤ 0.25 |
| KASS | 1.62 |
| VYLK | ≤ 0.25 |
| GIWF | ≤ 0.25 |
| SNKV | ≤ 0.25 |
| TQKS | ≤ 0.25 |
| VDFI | ≤ 0.25 |
